Measured values published in PubChem BioAssay AID2147 (National Center for Advancing Translational Sciences (NCATS), 2009).
“And” between values parts separate entries of the source, which are not always exact repeats. Equal values may be shown once. The campaign covered roughly 230,000 compounds. About 3,600 (1.6%) were called active. This list was built around the results that the source calls inconclusive (neither active nor inactive); the mix of calls is not that of the screen. Calls come from the whole dose curve; as a rule, active = well fitted inhibition curve with a large enough effect (not every such curve was filed as active); inconclusive = small, poorly fitted or top-dose-only effect, or another doubt; inactive = no such curve, though single readings can be large or run the other way. Where the call is inconclusive, the potency comes from a doubtful curve fit.

Molecular target: Lysine-specific demethylase 4E (Homo sapiens) (UniProt B2RXH2)
Assay: qHTS Assay for Inhibitors of Human Jumonji Domain Containing 2E (JMJD2E)
Conditions: JMJD2E catalytic domain, FDH-coupled NADH fluorescence (FDH is formaldehyde dehydrogenase); series mostly up to 57.1 µM
Note: nearly all actives have a fitted effect of over 50% in size.
Potency is the fitted concentration of half-maximal effect; tags give direction and shape of the fitted curve.

Sequence of UniProt B2RXH2 (B2RXH2 whole entry, looked up, the tested form may be a part): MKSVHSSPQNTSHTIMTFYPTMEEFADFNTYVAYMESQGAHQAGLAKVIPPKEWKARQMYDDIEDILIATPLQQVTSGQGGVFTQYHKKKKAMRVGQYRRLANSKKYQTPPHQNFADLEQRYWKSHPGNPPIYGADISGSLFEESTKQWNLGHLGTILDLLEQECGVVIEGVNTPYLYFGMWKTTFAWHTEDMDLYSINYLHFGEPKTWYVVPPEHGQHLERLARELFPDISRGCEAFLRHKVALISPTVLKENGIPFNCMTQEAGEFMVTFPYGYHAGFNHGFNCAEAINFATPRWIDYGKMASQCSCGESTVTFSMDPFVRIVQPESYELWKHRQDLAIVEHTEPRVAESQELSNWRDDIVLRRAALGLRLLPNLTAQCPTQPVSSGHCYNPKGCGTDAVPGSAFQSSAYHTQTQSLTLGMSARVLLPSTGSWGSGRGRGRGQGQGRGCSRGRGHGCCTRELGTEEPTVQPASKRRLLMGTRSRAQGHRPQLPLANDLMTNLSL

SMILES | Potency
CCn1c(CSc2nc3ccccc3s2)nnc1SCC(=O)c1ccc(Cl)cc1 | inactive
CCCC1Cc2[nH]c(=O)c(C#N)cc2CO1 (stereo unspecified) | inconclusive: 28.2 µM [inhibitor, partial curve]
COc1cc(C2c3c([nH]c(=O)[nH]c3=O)Nc3ccc4ccccc4c32)ccc1O (stereo unspecified) | inconclusive: 31.6 µM [inhibitor, partial curve]
CCOC(=O)c1cnn2c(C(F)(F)F)cc(-c3ccccc3)nc12 | inconclusive: 25.1 µM [inhibitor, partial curve]
C/C=C(\C)C(=O)OC1c2c(ccc3ccc(=O)oc23)OC(C)(C)C1OC(C)=O (stereo unspecified) | inconclusive: 28.2 µM [inhibitor, partial curve] and inconclusive: 28.2 µM [inhibitor, single point]
Nc1ccc(-c2nc3ccccc3[nH]2)cc1 | inconclusive: 31.6 µM [inhibitor, partial curve]
Cc1nc(NC(=O)CSc2ccc(-c3nc4ccccc4[nH]3)cn2)sc1C | inconclusive: 39.8 µM [inhibitor, single point]
COc1ccc(-c2nnc(SCc3nc4ccccc4s3)n2C(C)C)cc1 | inconclusive: 39.8 µM [inhibitor, single point]
CCc1nn(CC(=O)NCCCN(CC)c2cccc(C)c2)c(=O)c2cc3occc3n12 | inconclusive: 25.1 µM [inhibitor, single point]
Cc1ccc(CNC(=O)c2cc3c(=O)n4ccccc4nc3n(Cc3ccco3)c2=N)cc1 | inconclusive: 17.8 µM [inhibitor, partial curve]
O=C(Nc1ccc(F)cc1)Nc1nnc(-c2ccco2)s1 | inconclusive: 25.1 µM [inhibitor, single point]
O=c1c2ccccc2nc(COc2ccccc2)n1/N=C/c1ccc(O)c(O)c1 | inconclusive: 31.6 µM [inhibitor, single point]
CN(C)c1ccc(C(c2nnnn2C(C)(C)C)N2CCN(C(=O)c3ccco3)CC2)cc1 (stereo unspecified) | inactive
O=C(Nc1cccc2ccccc12)NC1CCS(=O)(=O)C1 (stereo unspecified) | inconclusive: 31.6 µM [inhibitor, partial curve]
Nc1nc(-c2ccccc2)c(N=Nc2cccc3ccccc23)s1 | inactive
Cc1nnc(SCc2ccccc2)n(N)c1=O | inconclusive: 39.8 µM [inhibitor, single point]
CSc1ccccc1C(=O)NCCSC(C)(C)C | inactive
Cn1cccc1/C=C1\SC(=S)N(NC(=O)c2ccccc2O)C1=O | inactive

SMILES | Potency
COC(=O)C1=CN(Cc2ccc(OC)cc2)C=C(C(=O)OC)C1c1ccsc1 | inconclusive: 31.6 µM [inhibitor, partial curve]
COc1ccc(CCNC(=O)COc2ccccc2[N+](=O)[O-])cc1OC | inactive
COc1ccc(-c2nc(CS(=O)CC(=O)NCc3ccco3)c(C)o2)cc1 (stereo unspecified) | inconclusive: 35.5 µM [inhibitor, single point]
Cc1cccc2sc(NNC(=O)c3ccc(S(=O)(=O)N4CC(C)CC(C)C4)cc3)nc12 (stereo unspecified) | inconclusive: 28.2 µM [inhibitor, single point]
COc1ccc(NS(=O)(=O)c2cccc(C(=O)N/N=C/c3ccc(O)cc3)c2)cc1 | inconclusive: 35.5 µM [inhibitor, single point]
Cc1ccc2nc(-c3ccc(NC(=O)CNC4CC4)cc3)sc2c1 | inconclusive: 35.5 µM [inhibitor, partial curve]
O=C(CN1CCOCC1)Nc1ccc2c(c1)OCCO2 | inconclusive: 39.8 µM [inhibitor, single point]
CCN(CCC#N)c1ccc(/C=N/Nc2nc(C)cc(=O)[nH]2)c(C)c1 | inconclusive: 15.8 µM [inhibitor, partial curve]
Cc1ccc(C)c(OCC(=O)NC(Cc2c[nH]c3ccccc23)C(=O)O)c1 (stereo unspecified) | inconclusive: 1.12 µM [inhibitor, full curve, poor fit]
CCCCS(=O)(=O)c1sc2nc3c(cc2c1N)CCCC3 | inconclusive: 35.5 µM [inhibitor, partial curve]
COC(=O)[C@H](COC(C)(C)C)NC(=O)O[C@@H]1Cc2cc(Br)ccc2O[C@H]1c1cccc(OC)c1 | inactive
COc1cc(OC)cc(C(=O)NCC(=O)OCC(=O)c2ccc3c(c2)-c2ccccc2C3)c1 | inconclusive: 22.4 µM [inhibitor, partial curve]
CCC(=O)NC(=S)Nc1ccc(NC(=O)COc2ccc(Cl)cc2Cl)cc1 | inactive
COc1ccc(-c2nc(CSCC(=O)NCc3ccc4c(c3)OCO4)c(C)o2)cc1OC | inactive
CCCc1cc(=O)[nH]c(SCC(=O)N2CCCc3ccccc32)n1 | inconclusive: 8.91 µM [inhibitor, single point]
N#Cc1c(N2CCCCC2)nc(N)c2c(N)nc3c(c12)CC(c1ccccc1)O3 (stereo unspecified) | inconclusive: 31.6 µM [inhibitor, partial curve]
CCOC(=O)C1CCN(S(=O)(=O)c2ccc(C(C)=O)cc2)CC1 | inactive
N#Cc1c(NC(NC(=O)c2ccco2)C(=O)c2ccccc2)sc2c1CCCC2 (stereo unspecified) | inconclusive: 35.5 µM [inhibitor, single point]
